In PubChem BioAssay AID1159614 (National Center for Advancing Translational Sciences (NCATS), 2016):
Among all 45,000 compounds or so, about 65 (0.1%) were called active. Calls follow the shape of the dose curve; as a rule, active = well fitted activation curve with a large enough effect; inconclusive = small, poorly fitted or top-dose-only effect; inactive = no such curve, though single readings can be large or run the other way. The list shows a part of the results.

Biological target: Galactocerebrosidase (Homo sapiens) (UniProt P54803)
Assay: A Novel Cell-Based Assay to Identify Small Molecules for B -Galactocerebrosidase; also: 0% is about no effect; nearly all actives have a fitted effect of over 65% in size
Conditions: 145M-Twi-hGALC-G270D cells (Twitcher mouse brain line with human GALC G270D), HMU-beta-Gal fluorescence, 48 h; series mostly up to 57.5 µM; activation: at the top concentration
Summary of the method: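 Fluorescence readout: HMU-β-gal cleavage by mutant GALC (0.1 mM final, citrate/phosphate pH 5.2 with 1 mg/mL taurocholate), stopped with carbonate/bicarbonate plus Triton X-100. Cells: murine Twitcher 145M-Twi expressing human G270D GALC; qHTS for activators.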

Chain of UniProt P54803 (P54803 whole entry, looked up): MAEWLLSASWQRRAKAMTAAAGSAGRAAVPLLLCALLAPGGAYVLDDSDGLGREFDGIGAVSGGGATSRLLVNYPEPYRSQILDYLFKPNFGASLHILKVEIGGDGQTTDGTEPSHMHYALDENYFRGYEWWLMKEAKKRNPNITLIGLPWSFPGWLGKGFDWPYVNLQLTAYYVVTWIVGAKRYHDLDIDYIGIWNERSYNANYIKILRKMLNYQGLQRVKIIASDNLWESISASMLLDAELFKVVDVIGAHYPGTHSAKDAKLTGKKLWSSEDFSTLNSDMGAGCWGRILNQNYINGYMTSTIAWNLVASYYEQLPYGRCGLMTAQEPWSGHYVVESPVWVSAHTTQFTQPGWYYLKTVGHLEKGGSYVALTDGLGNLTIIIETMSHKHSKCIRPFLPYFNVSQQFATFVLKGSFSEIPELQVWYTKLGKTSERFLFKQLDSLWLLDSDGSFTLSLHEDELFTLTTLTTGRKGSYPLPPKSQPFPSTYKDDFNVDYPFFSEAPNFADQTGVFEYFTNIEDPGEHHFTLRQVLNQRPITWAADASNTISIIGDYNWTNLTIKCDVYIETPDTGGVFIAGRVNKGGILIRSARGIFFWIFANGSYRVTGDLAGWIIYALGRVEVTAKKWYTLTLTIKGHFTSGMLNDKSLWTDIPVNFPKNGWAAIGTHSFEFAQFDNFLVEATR

activation, inactive:
COc1cccc(Cn2c(=O)n(-c3ccc(Br)cc3F)c(=O)c3sc4ccccc4c32)c1 -7.85%, Cc1ccc2nc(N(CCCN(C)C)C(=O)c3ccc(Br)s3)sc2c1 -10%, CCCOc1cccc(C(=O)N(Cc2cc(OC)c(OC)c(OC)c2)C2CCS(=O)(=O)C2)c1 (stereo not given) -22.5%, CCn1c(CN2CCC(C)CC2)nc2cc(NC(=O)COc3ccc([N+](=O)[O-])cc3)ccc21 -18%, CC(C)c1ccc(NC(=O)c2cccn2-c2nnc(N3CCCCC3)s2)cc1 -31.2%, Cc1ccc(OCCn2nnc3sc4c(c3c2=O)CCC(C(C)(C)C)C4)cc1 (stereo not given) -0.253%, NS(=O)(=O)c1ccc(CCNc2nc3c(-c4cccc(F)c4)nnn3c3ccc(Cl)cc23)cc1 -13.7%, CCOc1ccccc1NC(=O)Cn1nnc2sc3c(c2c1=O)CCC(C(C)(C)C)C3 (stereo not given) -14.7%, COc1ccc(NC(=O)Cn2cc(C(=O)C3CC3)c3ccccc32)cc1 -15.3%, CCN1CCN(C(=O)c2ccc3c(c2)N(Cc2cc(C)ccc2C)C(=O)c2ccccc2S3=O)CC1 (stereo not given) -10.5%, COC(=O)c1cc(NC(=O)CN(c2ccccc2)S(=O)(=O)N(C)C)ccc1Cl -6.94%, Cc1cc(C)c(/C=C/c2onc(C)c2S(=O)(=O)N2CCC(C(=O)NCc3ccco3)CC2)c(C)c1 -10.9%, O=C(CN1C(=O)C2(SCC(=O)N2c2cccc(Cl)c2)c2ccccc21)NC1CCCCC1 (stereo not given) -18.3%, CCOC(=O)c1c(C)[nH]c(C)c1S(=O)(=O)N(C)CC(=O)N1CCN(c2ccccc2OC)CC1 2.06%, CCOC(=O)N1CCN(C(=O)CN(c2ccc(C)cc2C)S(=O)(=O)c2ccccc2)CC1 2.54%, O=C(CCCCn1c(=O)[nH]c2ccsc2c1=O)N1CCN(c2cccc(Cl)c2)CC1 -11.9%, CCN(CC)CCCNC(=O)Cn1c(-c2cccs2)cc2cc(Cl)ccc21 -16.6%, Cc1ccc(CSc2nc3ccc(NC(=O)COc4ccccc4F)cc3s2)cc1 -4.35%, CCOC(=O)c1c(C)oc2c(Cl)cc(NS(=O)(=O)c3ccc(Cl)c(C)c3)cc12 -12.3%, CCCCN(CCCC)S(=O)(=O)c1ccc2oc(C(=O)NCc3ccccc3)c(C)c2c1 -12.2%, O=C(COCc1cc(-c2ccco2)on1)Nc1ccc(OC(F)(F)F)cc1 -16%, COc1cccc(OC)c1C(=O)Nc1ccc2c(c1)CCCN2S(=O)(=O)c1ccc(C)cc1 -12.3%, Cc1ccc(-c2nc3c(cnn3-c3ccccc3)c(=O)n2-c2ccc(Cl)cc2)cc1 -10.9%, O=C(CNS(=O)(=O)c1ccc(Br)s1)N1CCN(c2ccccc2F)CC1 -13.2%, Cc1nn(CC(=O)N2CCN(c3ccccc3)CC2)c(=O)c2cccn12 -11.3%, Cc1ccc(-n2ncc3c(NCCC4=CCCCC4)ncnc32)cc1C -7.82%, Cc1oc(-c2ccc(Cl)cc2)nc1Cn1c(=O)cc(-c2ccccc2)c2c(C)nn(C)c21 14.1%, Cn1c(C(=O)NCc2cccc(F)c2)cc2cc(S(=O)(=O)N3CCCCC3)ccc21 5.14%, COc1cccc(-c2nc(C(N)=O)c3c(n2)n(-c2ccc4c(c2)OCO4)c(=O)n3C)c1OC -4.27%, CSc1nc2c([nH]c3ccccc32)c(=O)n1-c1ccc(F)cc1 -25%, COc1ccc(-c2onc(C)c2C)cc1S(=O)(=O)N1CCC(C)CC1 7.7%, CCc1ccc(NC(=O)c2ccc(CN3C(=O)C(C)=C(c4ccc(C)cc4)S3(=O)=O)cc2)cc1 -1.57%, CCOc1ccc(-c2cc(C(F)(F)F)c(C#N)c(SCC(=O)Nc3ccccc3)n2)cc1 -9.12%, CC(=O)c1cc(-c2ccccc2)n(CCC(=O)Nc2cc(C)cc(C)c2)c1C -43.3%, COc1ccccc1CCNC(=O)c1cccn1-c1nnc(N2CCCCC2)s1 -22.3%, O=C(Cn1cc(S(=O)(=O)Cc2ccc(F)cc2)c2ccccc21)NCc1ccccc1 2.33%, CCOc1ccccc1NC(=O)CSc1cc(=O)n(CC)c2ccccc12 -19.6%, Cc1ccc(C)c(N2CCN(C(=O)c3c4c(nc5ccccc35)C(=O)N(C3CCCCC3)C4)CC2)c1 -12.2%, COc1ccc(-c2nc(CNS(=O)(=O)c3ccc(F)cc3)cs2)cc1 -9.55%, COc1ccccc1N1CCN(C(=O)c2c3c(nc4ccccc24)C(=O)N(C2CCCCC2)C3)CC1 -7.08%, Cc1cccc(NC(=O)CSc2nc(C)c(Cc3ccccc3)c(=O)[nH]2)c1 -14.7%, C[C@@H]1CN(c2c(F)c(N)c3c(=O)c(C(=O)O)cn(C4CC4)c3c2F)C[C@H](C)N1 -9.9% [at 23.8 µM], CCCNC(=O)CN1C(=O)c2cccnc2Sc2ccccc21 -8.42%, COc1cc(OC)cc(-n2c(=O)c3ccccc3n(CC(=O)NCCc3ccc(OC)c(OC)c3)c2=O)c1 -6.56%, COc1ccc2cc(CNc3ccc(OC)c(OC)c3)c(=O)n(CC(=O)Nc3ccc(C)cc3)c2c1 -14.1%, O=C(CSc1nc2c(c(=O)[nH]1)CN(Cc1ccc3c(c1)OCO3)CC2)Nc1ccc(F)cc1 -7.01%, O=C(N/N=C/c1ccccc1O)c1ccncc1 -7.85%, CCCOc1cccc(C(=O)Nc2ccc(-c3nc4ccccc4o3)cc2)c1 -19.1%, COc1ccccc1N1CCN(CCCNC(=O)Cn2ncc3c([nH]c4ccccc43)c2=O)CC1 -12.1%, Cc1ccc2ncc3c(-c4ccccc4)nn(CC(=O)NC4CCCCC4)c3c2c1 -7.23%, O=C(CC1NCCNC1=O)Nc1cccc(F)c1 (stereo not given) -10.7%, COc1ccc(NC(=O)CSC2=Nc3ccccc3C3=NC(CCC(=O)NCc4ccco4)C(=O)N23)cc1 (stereo not given) -9.18%, Cc1ccc(NC(=O)Cn2c(=O)oc3cc(S(=O)(=O)N4CCCC4)ccc32)cc1F -4.63%, Cc1nc2ccc(S(=O)(=O)CCC(=O)Nc3ccccc3C)cc2s1 7.46%, CCOC(=O)c1ccc(NC(=O)C2CCCN(c3ncnc4onc(C)c34)C2)cc1 (stereo not given) -7.75%, COc1cccc(C2C(C(=O)Nc3cccnc3)=C(C)Nc3nc(SCc4ccccc4)nn32)c1 (stereo not given) -13.5%, CC(=O)c1cccc(NC(=O)C2=CC(c3ccco3)=NS(=O)(=O)N2C)c1 -11%, COc1ccc(Nc2nnc(-c3ccc(C)c(S(N)(=O)=O)c3)c3ccccc23)cc1 -10.2%, CCc1ccc2nc(N3CCN(C(=O)c4ccco4)CC3)sc2c1 -6.46%, COc1ccc(CCNc2oc(COc3ccc(Cl)cc3)nc2C#N)cc1OC -18.4%
